Assay results as given in publication PMC7826282 (Nucleic Acids Research, 2020).

T1: 3xFLAG-FL-NOPCHAP1 (human, UniProt Q8N5I9 1-185)
T1 sequence (looked up): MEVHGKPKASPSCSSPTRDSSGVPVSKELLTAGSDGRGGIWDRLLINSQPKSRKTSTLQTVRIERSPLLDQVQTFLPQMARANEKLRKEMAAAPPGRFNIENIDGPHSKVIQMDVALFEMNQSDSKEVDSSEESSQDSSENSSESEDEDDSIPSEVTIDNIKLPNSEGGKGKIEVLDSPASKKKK


Target: T1, 3xFLAG-FL-NOPCHAP1
Test: co-IP

| co-IP efficiency [%] | Binder |
| --- | --- |
| 3.7 | RL-RUVBL1-K76M (natural protein) not shown |
| 0.16 | RL-RUVBL[…]Q (natural protein) not shown |
